# Measured values: article PMC4242493
# Some of the results follow. The list includes weakly bound sequences.
# Target: MaxL homodimer (UniProt P61244)
# Assay: universal protein-binding microarray (PBM)
# Conditions: PBS-based mixture, 10 nM His-tagged protein dimer, 2% milk, 200 ng/uL BSA, 50 ng/uL salmon testes DNA, 0.02% TX-100; detection with Alexa 488 anti-His …; high values mean tight binding; most listed sequences are background and not binding sites; double strand, one strand shown
# Sequence of UniProt P61244 (P61244 whole entry): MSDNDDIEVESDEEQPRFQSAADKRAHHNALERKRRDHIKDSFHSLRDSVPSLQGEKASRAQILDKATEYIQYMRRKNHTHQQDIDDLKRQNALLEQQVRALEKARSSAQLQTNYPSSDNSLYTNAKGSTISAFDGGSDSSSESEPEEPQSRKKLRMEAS
row,Sequence,binding signal (normalized occupancy)
1,ACACGAAT,0.0776
2,CATGCTGA,0.112
3,CTCACGTA,0.0774
4,CAAATCAA,0.0782
5,ATCGGGAA,0.0725
6,CACCGGCG,0.0698
7,ATTACCCC,0.0859
8,ATTTGGAA,0.0767
9,CTCTGCCA,0.0764
10,GGCACAAA,0.0731
11,ATTTCCAG,0.0763
12,CCACTATC,0.0771
13,GGAACAGA,0.0729
14,CCGTCCAG,0.0727
15,AGTAGGGA,0.0699
16,CAAGCAGA,0.0695
17,CAGATAGC,0.0738
18,AATAGCTC,0.0703
19,CTCACAAC,0.0786
20,CCTCGCAG,0.0737
21,CCGTCGCC,0.0694
22,CCTGAAGG,0.0681

row,Sequence,binding signal (normalized occupancy)
1,AATCGTTG,0.0788
2,AAAGTCCA,0.0783
3,CGACATTA,0.083
4,GTCCAAGA,0.0714
5,GTGTCAAC,0.0756
6,TACAGCCA,0.0764
7,ATTATAGC,0.0825
8,AGGGGACG,0.0705
9,ATGGGTCA,0.0818
10,CCTCATAG,0.0755
11,TATGAGGA,0.0851
12,AGAGTTAG,0.0729
13,GACCTTGA,0.0732
14,ATTTCGCC,0.0764
15,CGACTCTC,0.0722
16,CGTGTGGA,0.0865
17,AATGAAGT,0.0779
18,CACAATGC,0.0858
19,ACAACGGG,0.0774
20,GATTCGCC,0.0738
21,CTAAACAC,0.0808
22,GACTTAGA,0.0733

row,Sequence,binding signal (normalized occupancy)
1,CATTACAA,0.0753
2,AGGTGCGA,0.0728
3,ATTTCGAG,0.0698
4,GCCTAGAA,0.0716
5,AAGGGGGA,0.078
6,CCAACGAA,0.0743
7,CATAAAAA,0.0753
8,AGGCGCTC,0.0678
9,AAGTCCAG,0.0671
10,ATATTTAG,0.0794
11,AACGGGAT,0.0779
12,ATCCGAGC,0.072
13,AGTTTGTG,0.0732
14,CAAGGTGC,0.0812
15,TAGATCCA,0.0771
16,CGATTCCG,0.066
17,ACCCCCAG,0.076
18,CATAAAAC,0.085
19,ACTAAGGC,0.0707
20,CACGAGTG,0.0961
21,TGACCTCA,0.0803
22,AAGGGCAT,0.0776

row,Sequence,binding signal (normalized occupancy)
1,CGCGGGTC,0.0712
2,TGGGGACA,0.078
3,CGATCCAG,0.072
4,CGTGTTAA,0.0819
5,CAGGGTCG,0.0678
6,ACGTGGAC,0.106
7,CATAAGCC,0.0793
8,ATCGTTTG,0.0726
9,CTGTCCGA,0.0691
10,GTAGCCCA,0.073
11,TAGGTGGA,0.0718
12,AAGCTGAT,0.0732
13,CCAGACGA,0.0707
14,ATGCTCTC,0.0819
15,TTTAGAAA,0.0723
16,GATGCCTA,0.0805
17,ACGCCGGG,0.0728
18,GAGACACC,0.0741
19,TAGCGATA,0.0741
20,CCGATGTC,0.073
